# About 2,200 (0.71%) of roughly 310,000 compounds showed an effect of 50% or more. Effects have a minus sign here. The list shows a part of the results.
# Molecular target: human ether-à-go-go-related gene (hERG) potassium channel (human, UniProt Q12809)
# Experiment: primary screen, population patch clamp on CHO cells stably expressing hERG
# Sequence of human ether-à-go-go-related gene (hERG) potassium channel (Q12809 whole entry, looked up): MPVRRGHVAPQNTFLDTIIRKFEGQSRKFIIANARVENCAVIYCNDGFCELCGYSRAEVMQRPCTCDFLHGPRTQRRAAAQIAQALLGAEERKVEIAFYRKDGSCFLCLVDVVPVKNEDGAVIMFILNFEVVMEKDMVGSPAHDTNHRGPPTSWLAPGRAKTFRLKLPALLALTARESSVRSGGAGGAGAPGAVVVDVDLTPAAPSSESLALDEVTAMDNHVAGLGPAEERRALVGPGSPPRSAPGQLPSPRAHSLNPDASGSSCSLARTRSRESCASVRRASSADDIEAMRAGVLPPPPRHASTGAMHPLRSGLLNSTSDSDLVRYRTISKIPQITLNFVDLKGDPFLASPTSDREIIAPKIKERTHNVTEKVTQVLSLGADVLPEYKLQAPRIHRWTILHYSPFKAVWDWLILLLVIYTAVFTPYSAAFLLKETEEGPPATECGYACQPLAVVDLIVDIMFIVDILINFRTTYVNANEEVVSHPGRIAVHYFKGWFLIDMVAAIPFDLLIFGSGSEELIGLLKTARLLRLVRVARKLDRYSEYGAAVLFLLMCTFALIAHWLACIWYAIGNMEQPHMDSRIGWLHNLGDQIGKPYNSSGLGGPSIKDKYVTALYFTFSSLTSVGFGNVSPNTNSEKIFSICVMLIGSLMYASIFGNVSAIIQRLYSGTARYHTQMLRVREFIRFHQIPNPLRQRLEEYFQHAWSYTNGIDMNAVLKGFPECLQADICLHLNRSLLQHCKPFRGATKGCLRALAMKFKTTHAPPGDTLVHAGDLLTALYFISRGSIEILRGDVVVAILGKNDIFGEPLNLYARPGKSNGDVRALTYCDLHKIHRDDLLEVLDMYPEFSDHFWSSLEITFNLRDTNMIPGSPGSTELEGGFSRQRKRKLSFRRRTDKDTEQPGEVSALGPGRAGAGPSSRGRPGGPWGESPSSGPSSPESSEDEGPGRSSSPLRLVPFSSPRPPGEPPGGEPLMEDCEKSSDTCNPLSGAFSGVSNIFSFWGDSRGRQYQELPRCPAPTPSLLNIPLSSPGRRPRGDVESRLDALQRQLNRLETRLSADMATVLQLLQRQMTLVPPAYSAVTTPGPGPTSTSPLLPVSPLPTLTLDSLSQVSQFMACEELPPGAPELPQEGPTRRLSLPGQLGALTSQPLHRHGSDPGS
row,Structure (SMILES),"hERG current change (%, negative = inhibition) at 1uM [%]"
1,Cc1cncn1CCc1nc2c3ccccc3nc(SCC(=O)Nc3cccc(Cl)c3)n2n1,-5.37
2,COc1cc(NC(C)CCCN)c2ncccc2c1Oc1ccccc1.O=C(O)CCC(=O)O (centres unmarked),2.23
3,COc1ccc(OC)c(/C=N/N(C)c2ccccc2)c1,12.4
4,COc1ccc(N2C(N)=C(C#N)C(c3ccsc3)C3=C2CCCC3=O)c(OC)c1 (centres unmarked),6.88
5,CC(C)NC(=O)C1(O)c2ccccc2NC(=O)N1c1ccc(Cl)c(Cl)c1 (centres unmarked),13.8
6,CC(=O)c1ccc(N2CCN(S(=O)(=O)c3cc4[nH]c(=O)c(=O)[nH]c4cc3C)CC2)cc1,6.22
7,O=C(Nc1cccc(-c2nc3cccnc3s2)c1)c1ccco1,-0.783
8,Oc1[nH]c2ccccc2c1N=Nc1c(F)c(F)c(Cl)c(F)c1F,9.96
9,Cc1ccc(-c2nnn(CC(=O)N(CCN3CCOCC3)C(C(=O)NC(C)(C)C)c3ccco3)n2)cc1 (centres unmarked),17.8
10,COc1ccc(OC)c(CCNC(=O)c2cccc(NC3=NC4CS(=O)(=O)CC4S3)c2)c1 (centres unmarked),-0.402
11,Cc1cccc(OCc2nnc(SCC(=O)NC3CCCCC3)n2C)c1,9.94
12,Cc1nnc(SCC(=O)Nc2ccc(N3CCOCC3)cc2)n1Cc1ccccc1,1.85
13,CC(C)c1ccc(N(C(=O)c2ccco2)C(C(=O)NC2CCCC2)c2ccncc2)cc1 (centres unmarked),-1.36
14,NC(=O)c1ccc(NC(=O)CCc2nc3ccccc3s2)cc1,7.25
15,CCOC(=O)c1sc2ncnc(NCc3ccco3)c2c1C,3.39
16,C=C(C)C(=O)Nc1cccc(C2=NOC3(C2)C[C@@H](C(N)=O)N(C(=O)[C@H]2CCC(=O)N2)C3)c1 (some centres unmarked),9.83
17,COc1cc2[nH]c(=S)n(C3CCN(Cc4ccccc4)CC3)c(=O)c2cc1OC,-4.65
18,CCOC(=O)c1ccc(Oc2cc(C)nc(SC)n2)cc1,3.34
19,O=C(Nc1ccccc1)OCCOc1cccc(Br)c1,7.9
20,O=C(CN1CCN(c2ccc(F)cc2)CC1)NCc1ccc(F)cc1,-8.95
21,COc1ccc(-c2noc(COc3ccccc3OC)n2)cc1OC,7.41
22,NNC(=O)CSc1nnnn1-c1ccccc1,3.23

row,Structure (SMILES),"hERG current change (%, negative = inhibition) at 1uM [%]"
1,CN1CCN(C(c2cccc(C(F)(F)F)c2)c2nnnn2C(C)(C)C)CC1 (centres unmarked),8.5
2,O=C1C2C3C=CC(C3)C2C(=O)N1c1cccnc1 (centres unmarked),13.5
3,COc1cc(C(=O)NCc2ccc3c(c2)OCO3)ccc1OCc1c(C)noc1C,3.55
4,CC1CN(C2CCN(S(=O)(=O)Cc3ccccc3)CC2)CC(C)O1 (centres unmarked),-2.68
5,Cc1ccc(C2c3c(C)nn(-c4ccc([N+](=O)[O-])cc4)c3N=C3C(=O)Nc4ccccc4N32)cc1 (centres unmarked),11.9
6,Oc1ccc(-c2nccc(-c3ccc(Br)cc3)n2)cc1,12.9
7,CC(C)CCN1C(=O)c2ccc(C(=O)NCc3ccco3)cc2C1=O,-1.4
8,COc1cccc(S(=O)(=O)Nc2ccc3sc(C)nc3c2)c1,10.2
9,CCCSc1cc(N2CCCC2)nc(-c2ccccc2)n1,10.8
10,O=C(Nc1cccc(C(=O)Nc2ccccc2F)c1)c1ccccc1,11.4
11,CC(C)c1ccc2oc(=O)cc(CN3CCN(Cc4ccccc4)CC3)c2c1,9.67
12,O=C(CCc1n[nH]c(=O)[nH]c1=O)N/N=C/c1ccc(Br)o1,6.63
13,Cc1ccc(S(=O)(=O)Nc2cc(C(=O)Nc3cc(C)cc(C)c3)ccc2Cl)cc1,8.71
14,C=C(C)CNC(=S)N/N=C/C1=CCC2CC1C2(C)C (centres unmarked),7.5
15,COc1ccc(CNC(C)C23CC4CC(CC(C4)C2)C3)c(OC)c1OC.Cl (centres unmarked),1.98
16,CCNS(=O)(=O)c1ccc(CCC(=O)N2CCN(c3cccc(Cl)c3)CC2)cc1,10.5
17,O=C(NCc1ccco1)c1cc2cc3ccc(Cl)cc3nc2o1,8.75
18,Cc1cccc(-n2c(C)cc(/C=C3\C(=N)N4N=C(CC(C)C)SC4=NC3=O)c2C)c1,9.32
19,CCn1cc(C(=O)NCc2ccccc2)c(=O)c2cc(F)c(N3CCN(C(=O)c4ccco4)CC3)cc21,15.2
20,O=C(Cc1cccs1)N(Cc1ccco1)C1(C(=O)NC2CCCC2)CCCCC1,4.05
21,c1cncc(-c2nc(NCC3COc4ccccc4O3)c3ccccc3n2)c1 (centres unmarked),5.21
22,Cn1c(CC(=O)Nc2ccccc2)nnc1SCC(=O)NC1=NCCS1,13.4

row,Structure (SMILES),"hERG current change (%, negative = inhibition) at 1uM [%]"
1,Cc1ccc(C(=O)N(Nc2nc3ccccc3s2)C(=O)c2ccc(C)cc2)cc1,13.6
2,O=C(Cc1ccsc1)N1CCN(S(=O)(=O)c2cccc(F)c2)CC1,8.76
3,O=C(NCCc1ccccc1)C1CCN(C2CCN(Cc3ccc(CO)o3)CC2)CC1,5.67
4,Cc1ccc(C(=O)c2cncc(Br)c2)cc1,7.48
5,COc1cc(OC)cc(-c2nnc(SCC(=O)N3CCCc4ccccc43)o2)c1,5.2
6,C1=NCCc2c1[nH]c1ccccc21.[O-][Cl+3]([O-])([O-])O,12.8
7,CCn1nc(C)c(CNC(=O)CC2C(=O)NCCN2Cc2ccc(C)o2)c1C (centres unmarked),14.4
8,Cc1ccc(-c2cc(-c3ccccc3)c(C#N)c(N)n2)o1,11.2
9,COc1ccc([C@H]2/C=C\CN(S(=O)(=O)/C=C/c3ccccc3)[C@@H](C)C(=O)N2Cc2ccc(F)cc2)cc1,-47.4
10,O=C(Nc1ccccn1)c1ccc(S(=O)(=O)c2ccc(Cl)cc2)cc1,14.3
11,Cc1ccc(-n2c(Cc3cccn3C)nnc2SCC(=O)Nc2nnc(C)s2)cc1,-0.247
12,COC(=O)C1(C(=O)OC)NOC2C(=O)N(c3ccc(Cl)cc3Cl)C(=O)C21 (centres unmarked),-1.11
13,O=C(Nc1ccccc1)NC1(C(=O)N2CCC(O)CC2)CCCCC1,-20.6
14,Cc1ccc(OCC(O)CN2CCOCC2)c(C)c1.Cl (centres unmarked),12.6
15,NC1=NC(=O)/C(=C/c2ccccc2OS(=O)(=O)c2ccc3ccccc3c2)S1,11.9
16,O=C(/C=C/c1ccc2c(c1)OCO2)N1CCN(c2n[nH]c(=O)[nH]c2=O)CC1,3.13
17,CC(=O)C(C)Sc1nnc(-c2ccccc2F)n1C1CC1 (centres unmarked),18.9
18,CCCc1cc(=O)[nH]c(SCC(=O)c2c[nH]c3ccccc23)n1,20.1
19,Cc1ccc(C(=O)CSc2nnc(-c3ccco3)n2Cc2ccccc2)cc1,-0.102
20,Cc1ccc(NS(=O)(=O)c2cccc(C(=O)NCCCn3ccnc3)c2)cc1,15.2
21,COC(=O)Cn1cc(C=C2C(=O)NC(=O)NC2=O)c2ccccc21,12.5
22,CC/C(=N/NS(=O)(=O)c1ccc(Cl)cc1)c1ccc(O)cc1,4.09

row,Structure (SMILES),"hERG current change (%, negative = inhibition) at 1uM [%]"
1,Cn1c(N)c(C(=O)COC(=O)C2CCCCC2)c(=O)n(C)c1=O,4.03
2,CCCN1Cc2cccc(C(=O)Nc3ccc(CC)cc3)c2C1=O,8.47
3,CC(C)C(OC(=O)c1ccco1)C(=O)NCc1ccccc1 (centres unmarked),9.05
4,COc1cc(N(C)C)c([N+](=O)[O-])cc1C(=O)N1CCN(Cc2ccccc2)CC1,14.9
5,CC1CN(C(=O)CCn2c(=O)oc3ccccc32)CC(C)O1 (centres unmarked),5.2
6,CC(=O)N/C(=C/c1cccnc1)C(=O)Nc1ccc(Cl)cc1,-3.89
7,C=CCOc1ccc(C2C(C#N)=C(N)N(N(C)C)C3=C2C(=O)CCC3)cc1 (centres unmarked),0.182
8,CS(=O)(=O)Nc1cccc(-c2cnc3ccccc3n2)c1,-43.8
9,Cc1ccc(S(=O)(=O)Nc2ccccc2CNc2ncc(Br)cc2Br)cc1,10.2
10,COC(CNC(=O)C1CCN(S(=O)(=O)c2cccc3nsnc23)CC1)OC,17.2
11,COc1ccc2c(c1)c(C(=O)CN1CCC3(CC1)OCCO3)c(C)n2C,7.41
12,CCOC(=O)C1CCCN(C(=O)c2ccc(S(=O)(=O)NCc3ccco3)cc2)C1 (centres unmarked),5.98
13,Nc1nc(NCCOCCO)nc(Nc2cccc(F)c2)c1[N+](=O)[O-],6.22
14,CC(=O)N(c1ccc2oc(=O)sc2c1)S(=O)(=O)c1cccs1,1.51
15,CCCOc1ccc(C(CC(=O)O)NC(=O)C23CC4CC(CC(C4)C2)C3)cc1 (centres unmarked),14.9
16,CCCC1(CCC)C(=O)NC(=NCCc2ccc(OC)c(OC)c2)NC1=O,2.39
17,CCCCN(C)C1CCN(C(=S)Nc2ccc(OC)cc2)CC1,-7.98
18,Cc1c(C(=O)N2CCN(C3CCS(=O)(=O)C3)CC2)oc2c(F)cccc12 (centres unmarked),10.7
19,CCOC(=O)C1CCN(C(=O)c2cccc(N3C(=O)NC4CC3(C)Oc3ccc(C)cc34)c2)CC1 (centres unmarked),16.5
20,Cc1ccc(C2=NC(C)(C)NC2=O)cc1,-0.529
